# Source: US10799597B2, “Subcutaneous administration of antibody-drug conjugates for cancer therapy” (Immunomedics, Inc., priority 2017, dated 2020)
# B1: hA20-CL2A-SN-38: nontargeting anti-CD20 control ADC (conjugate, chains of the INN, looked up)
# heavy: QVQLQQSGAEVKKPGSSVKVSCKASGYTFTSYNMHWVKQAPGQGLEWIGAIYPGMGDTSYNQKFKGKATLTADESTNTAYMELSSLRSEDTAFYYCARSTYYGGDWYFDVWGQGTTVTVSSASTKGPSVFPLAPSSKSTSGGTAALGCLVKDYFPEPVTVSWNSGALTSGVHTFPAVLQSSGLYSLSSVVTVPSSSLGTQTYICNVNHKPSNTKVDKRV[sequence of human IgG1 Fc omitted]
# light: DIQLTQSPSSLSASVGDRVTMTCRASSSVSYIHWFQQKPGKAPKPWIYATSNLASGVPVRFSGSGSGTDYTFTISSLQPEDIATYYCQQWTSNPPTFGGGTKLEIKRTVAAPSVFIFPPSDEQLKSGTASVVCLLNNFYPREAKVQWKVDNALQSGNSQESVTEQDSKDSTYSLSSTLTLSKADYEKHKVYACEVTHQGLSSPVTKSFNRGEC
# modifications: CL2A-SN-38 payload
# Key:
# [1] = test system: Capan-1 pancreatic adenocarcinoma xenografts; assay: Therapy of Capan-1 tumor xenografts in nude mice; format: in vivo, athymic nude mice; details: day 140; 0.2 mg/kg SN-38 twice weekly×4 weeks
# Description: FIG. 3C. […] Animals were treated twice weekly for 4 weeks as indicated by the arrows. Capan-1 mice (N=10) were treated with 0.2 mg/kg ADC and tumors measured weekly.
# FIG. 4C. […] Capan-1 (N=10) were treated twice weekly for 4 weeks with the agents indicated.
# [2] = test system: SK-MES-1 human squamous cell lung tumors; assay: Therapy of SK-MES-1 tumor xenografts in nude mice; details: hA20 ADC equal dose; irinotecan at MTD (q2dx5)
molecule,measurement,setting,value
B1,mice tumor-free at the end of the study,[1],20%
same,antitumor effect relative to the specific conjugate,[2],provided the same antitumor effects as the specific hRS7-SN-38 conjugate
